# Measurements published in PubChem BioAssay AID1460 (National Center for Advancing Translational Sciences (NCATS), 2008).
# The whole screen tested about 270,000 compounds, of which about 5,800 (2.1%) were called active. The inconclusive results got no clear call from the source; some entries with a clear call stand among them for comparison. Calls follow the shape of the dose curve; as a rule, active = well fitted inhibition curve with a large enough effect; inconclusive = small, poorly fitted or top-dose-only effect; inactive = flat fitted curve, though single readings scatter. A potency beside an inconclusive call is a rough fit, not a confirmed value.
# Target: Microtubule-associated protein tau (Homo sapiens) (UniProt P10636)
# UniProt P10636, sequence (P10636 whole entry, looked up): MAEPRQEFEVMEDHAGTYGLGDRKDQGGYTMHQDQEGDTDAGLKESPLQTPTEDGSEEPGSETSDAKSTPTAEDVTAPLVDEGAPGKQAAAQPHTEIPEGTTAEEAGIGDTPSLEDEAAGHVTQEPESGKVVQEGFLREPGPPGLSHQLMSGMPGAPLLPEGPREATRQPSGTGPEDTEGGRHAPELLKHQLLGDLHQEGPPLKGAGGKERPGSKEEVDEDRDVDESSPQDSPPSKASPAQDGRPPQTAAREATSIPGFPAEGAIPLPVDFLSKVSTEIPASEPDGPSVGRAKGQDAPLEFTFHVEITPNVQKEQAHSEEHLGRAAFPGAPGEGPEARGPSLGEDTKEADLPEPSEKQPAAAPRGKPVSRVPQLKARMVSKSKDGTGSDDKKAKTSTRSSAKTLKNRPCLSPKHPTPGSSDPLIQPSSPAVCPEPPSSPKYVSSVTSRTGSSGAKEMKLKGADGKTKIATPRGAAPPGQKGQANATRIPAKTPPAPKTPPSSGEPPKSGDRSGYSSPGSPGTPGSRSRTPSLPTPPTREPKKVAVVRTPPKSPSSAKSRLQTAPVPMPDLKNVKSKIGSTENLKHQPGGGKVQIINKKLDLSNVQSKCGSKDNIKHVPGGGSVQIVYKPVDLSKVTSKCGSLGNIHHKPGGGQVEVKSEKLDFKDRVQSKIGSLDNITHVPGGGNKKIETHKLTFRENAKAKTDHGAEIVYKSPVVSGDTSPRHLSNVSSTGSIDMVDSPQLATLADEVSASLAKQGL
# Test: qHTS for Inhibitors of Tau Fibril Formation, Thioflavin T Binding; also: nearly all actives have a fitted effect of over 55% in size
# Conditions: recombinant tau K18 P301L (four-repeat tau fragment), heparin-induced fibrillization, ThT fluorescence; series mostly up to 57.4 µM; activity, negative = inhibition: at the top concentration
# Method in brief: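 K18 P301L tau (15 uM + 0.24 uM Alexa 594-tagged), heparin 20 uM, NaOAc pH 7, 6 h 37 C; ThT 30 uM, 1 h RT, ex 450/em 510 nm.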
# % is scaled to controls: 0 for no effect and ±100 for the full control effect; potency is read from the fitted curve at half-maximal effect; tags tell the direction and shape of the fitted curve.
Compound,"activity, negative = inhibition",Potency
CC1CCCC(C)N1C(=O)CSc1nnc(NC(=O)c2cccs2)s1 (centres undefined),inactive: -0.298%,–
COc1ccc(NC(=O)c2ccco2)cc1NC(=O)COc1ccccc1Cl,–,"inconclusive: 0.708 µM [inhibitor, full curve, poor fit]"
COC(=O)/C(C#N)=C1/C=Cc2ccccc2N1,–,"inconclusive: 4.47 µM [inhibitor, partial curve, poor fit]"
CC(/C=N/NC(=O)CSc1ccccn1)=C\c1ccc(C(C)C)cc1,–,"inconclusive: 20 µM [inhibitor, single point]"
CC(=O)c1ccc(N2CCN(c3ccc(C(F)(F)F)cn3)CC2)cc1,–,"inconclusive: 5.01 µM [inhibitor, partial curve]"
NC(=O)C1=C[C@H](c2ccc3c(c2)OCO3)C[C@H](OCc2ccc(CO)cc2)O1,–,"inconclusive: 22.4 µM [inhibitor, single point]"
Cc1ccccc1C1c2[nH]c3ccccc3c2CCN1Cc1cccn1-c1ncccn1 (centres undefined),–,"inconclusive: 20 µM [inhibitor, partial curve]"
O=C(NCc1ccco1)c1cccn2c(=O)c3cc4ccccc4cc3nc12,–,active: 2.82 µM
Cc1cc(Cl)cc(Cl)c1OCCOc1cccc2cccnc12,–,"inconclusive: 28.2 µM [inhibitor, partial curve]"
O=C1CC(c2ccc3c(c2)OCO3)c2cc(O)ccc2O1 (centres undefined),–,"inconclusive: 39.8 µM [inhibitor, partial curve, poor fit]"
COc1ccc(C(=O)N2CCC(C(=O)Nc3ccccc3Cl)CC2)cc1,inactive: -1.71%,–
COc1cc(/C=N/N=C(\N)c2nonc2N)ccc1O,–,"inconclusive: 17.8 µM [inhibitor, partial curve]"
O=C(CSc1nnc(COc2cccc3cccnc23)o1)c1ccc(F)cc1,–,"inconclusive: 0.794 µM [inhibitor, full curve]"
Cc1ccc(CSc2nc3cccnc3n2Cc2ccc(C(=O)NCCc3cccs3)cc2)cc1,inactive: 2.18%,–
O=C(NC1=NCCS1)c1cc(-c2cccnc2)nc2ccccc12,inactive: -15.8%,–
Cc1ccc(-c2noc(-c3nnn(CC(=O)Nc4cc(Cl)ccc4C)c3N)n2)cc1,inactive: 3.77%,–
CCN1CCCc2cc(CN(CCN3CCOCC3)C(=S)Nc3ccc(OC)cc3)ccc21,inactive: -9.61%,–
COc1ccc(N2CCN(C(=O)Nc3ccc(S(=O)(=O)N(C)C)cc3)CC2)cc1,–,"inconclusive: 15.8 µM [inhibitor, partial curve]"
CN1CCN(C2Cc3ccccc3Sc3ccc(Cl)cc32)CC1 (centres undefined),–,"inconclusive: 17.8 µM [inhibitor, partial curve]"
CNc1ccccc1C(C)(C)c1cc(-c2ccco2)n[nH]1,–,"inconclusive: 22.4 µM [inhibitor, single point]"
CN(c1ncc(C(F)(F)F)cc1Cl)n1cc(C(N)=O)c2ccccc2c1=O,inactive: -8.93%,–
COc1ccc(C2CC(=O)N(CC(=O)Nc3cccc(C)c3C)c3ccccc3S2)cc1OC (centres undefined),–,"inconclusive: 28.2 µM [inhibitor, single point]"

Compound,"activity, negative = inhibition",Potency
CCOc1ccc(NC(=S)N(CCc2c(C)[nH]c3ccc(C)cc23)Cc2cccnc2)cc1,–,"inconclusive: 11.2 µM [inhibitor, partial curve]"
Cc1ccc(-n2c(C)cc(C(=S)N3CCOCC3)c2C)cc1C,–,"inconclusive: 28.2 µM [inhibitor, single point]"
CC(C)COc1ccc(-c2cc(C(=O)NN)[nH]n2)cc1,–,"inconclusive: 10 µM [inhibitor, partial curve]"
COc1ccc(N2CCN(Cc3nc4scc(-c5cccs5)c4c(=O)[nH]3)CC2)cc1,–,"inconclusive: 15.8 µM [inhibitor, partial curve]"
CC(=O)c1cccc(NC(=O)c2nc(-c3ccccc3)n(-c3ccccc3C)n2)c1,inactive: 2.27%,–
COc1ccc(C2c3cccn3CCN2S(=O)(=O)c2ccc([N+](=O)[O-])cc2)cc1 (centres undefined),–,"inconclusive: 44.7 µM [inhibitor, single point]"
Cc1ccc(C)c(OCc2ccc(C(=O)N3N=C(C(F)F)CC3(O)C(F)F)o2)c1 (centres undefined),–,"inconclusive: 10 µM [inhibitor, partial curve, poor fit]"
CCc1cc2c(SCc3nc4sc(C(C)=O)c(C)c4c(=O)[nH]3)ncnc2s1,–,"inconclusive: 17.8 µM [inhibitor, partial curve]"
CCN1CCN(c2cc(C)c3cc(NC(=O)c4ccc(OC)c(OC)c4)ccc3n2)CC1,–,"inconclusive: 15.8 µM [inhibitor, partial curve]"
CCCCn1c(=NC(=O)c2ccco2)c(C(=O)OCC)cc2c(=O)n3cccc(C)c3nc21,–,"inconclusive: 11.2 µM [inhibitor, partial curve, poor fit]"
COc1ccc(NC(=O)c2oc3ccccc3c2NC(=O)Cc2cccs2)c(OC)c1,inactive: -0.514%,–
CC(C)(C)NC(=O)CSc1nncn1NCc1cccc2ccccc12,–,"inconclusive: 31.6 µM [inhibitor, partial curve, poor fit]"
CCCCn1c(SCC(=O)NCc2ccc(C)cc2)nc2c(sc3ccccc32)c1=O,inactive: 0.521%,–
CCOC(=O)c1ccccc1NC(=O)c1cccnc1,inactive: 0.666%,–
CCN1C(=O)c2cccc3c(S(=O)(=O)Nc4ccc(OC)cc4OC)ccc1c23,inactive: -16.5%,–
c1ccc(CNc2ccnc(-c3ccc4c(c3)OCO4)n2)cc1,–,"inconclusive: 2.82 µM [inhibitor, full curve, poor fit]"
CCOC(=O)N1CCC(=NNc2nc(C)cc(=O)[nH]2)CC1,–,"inconclusive: 35.5 µM [inhibitor, single point]"
O=C(NC(=S)N1CCN(c2ccc([N+](=O)[O-])cc2)CC1)c1ccc(F)cc1,–,"inconclusive: 39.8 µM [inhibitor, single point]"
O=[N+]([O-])c1c(Nc2ccccc2)ccc2nonc12,inactive: -30.8%,–
CCOC(=O)Cn1c(=O)oc2cc(S(=O)(=O)N3CCN(c4cc(C)ccc4C)CC3)ccc21,inactive: 0.751%,–
O=C(Nc1ccc(C2=NCCN2)cc1)c1ccc(C(=O)Nc2ccc(C3=NCCN3)cc2)c([N+](=O)[O-])c1,–,active: 4.47 µM
CC1(C)CN=c2s/c(=C\c3ccc(Cl)cc3)c(=O)n2C1,–,"inconclusive: 28.2 µM [inhibitor, partial curve, poor fit]"
